# PubChem BioAssay AID2147 (National Center for Advancing Translational Sciences (NCATS), 2009)
# Where “and” joins values, the source holds several entries; their conditions need not be identical. Equal values may be shown once. Among all 230,000 compounds or so, about 3,600 (1.6%) were called active. This list was built around the results that the source calls inconclusive (neither active nor inactive); the mix of calls is not that of the screen. Calls come from the whole dose curve; as a rule, active = well fitted inhibition curve with a large enough effect (not every such curve was filed as active); inconclusive = small, poorly fitted or top-dose-only effect, or another doubt; inactive = no such curve, though single readings can be large or run the other way. Potencies of inconclusive entries are doubtful fits and often do not repeat.
# Biological target: Lysine-specific demethylase 4E (Homo sapiens) (UniProt B2RXH2)
# Chain of UniProt B2RXH2 (B2RXH2 whole entry, looked up, the tested form may be a part): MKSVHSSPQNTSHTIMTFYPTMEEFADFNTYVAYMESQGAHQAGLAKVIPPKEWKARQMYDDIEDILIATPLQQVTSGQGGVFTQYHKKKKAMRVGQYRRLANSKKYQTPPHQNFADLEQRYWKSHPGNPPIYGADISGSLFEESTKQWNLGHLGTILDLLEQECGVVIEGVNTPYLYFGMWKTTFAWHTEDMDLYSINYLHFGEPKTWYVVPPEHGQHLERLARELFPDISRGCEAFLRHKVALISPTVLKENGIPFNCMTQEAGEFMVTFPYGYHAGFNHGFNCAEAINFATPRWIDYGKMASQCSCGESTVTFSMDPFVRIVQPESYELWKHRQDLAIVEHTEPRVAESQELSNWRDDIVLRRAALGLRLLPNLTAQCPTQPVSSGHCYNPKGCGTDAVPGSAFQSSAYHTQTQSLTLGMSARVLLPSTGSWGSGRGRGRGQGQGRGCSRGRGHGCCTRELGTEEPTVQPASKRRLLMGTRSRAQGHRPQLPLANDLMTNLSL
# Assay: qHTS Assay for Inhibitors of Human Jumonji Domain Containing 2E (JMJD2E)
# Conditions: JMJD2E catalytic domain, FDH-coupled NADH fluorescence (FDH is formaldehyde dehydrogenase); series mostly up to 57.1 µM
# Note: nearly all actives have a fitted effect of over 50% in size.
# Potency is the fitted concentration of half-maximal effect; tags give direction and shape of the fitted curve.
row,Structure (SMILES),Potency
1,CC(C)c1ccc(NC(=S)Nc2ccc3[nH]c(=O)[nH]c3c2)cc1,inactive
2,COc1cc2c(cc1OC)-c1cc3nc4ccccc4nc3n1C(C)(C)C2,active: 4.47 µM
3,COC(=O)c1c2c(nc3ccccc13)CCC2,"inconclusive: 39.8 µM [inhibitor, single point]"
4,COc1cc2ncc(S(=O)(=O)c3ccccc3)c(N3CCC4(CC3)OCCO4)c2cc1OC,inactive
5,CCCc1noc2c1C(c1cc(Br)ccc1F)C(C#N)=C(N)N2 (stereo unspecified),inactive
6,CCN1C=C(C(=O)OC)C(c2cccc(OC)c2OC)C(C(=O)OC)=C1,"inconclusive: 31.6 µM [inhibitor, partial curve]"
7,COc1cccc2c(=O)n(CC(=O)NCCc3ccccc3)ccc12,"inconclusive: 25.1 µM [inhibitor, partial curve]"
8,O=C(Nc1ccc2c(c1)OCCO2)c1cc2sccc2n1Cc1ccc(F)cc1,"inconclusive: 35.5 µM [inhibitor, single point]"
9,CCc1cccc2c(C(=O)CN3C(=O)NC(C)(c4cccc5ccccc45)C3=O)c[nH]c12 (stereo unspecified),"inconclusive: 39.8 µM [inhibitor, single point]"
10,COC(=O)C1(C(=O)OC)CC2=CC(CC2=O)Cc2ccccc2[C@@H]1C[N+](=O)[O-] (stereo partly specified),inactive
11,Cc1c(C)c2ccc(OC3CCCCC3=O)cc2oc1=O (stereo unspecified),"inconclusive: 31.6 µM [inhibitor, partial curve]"
12,CCOC(=O)c1[nH]c2ccc(OC)cc2c1NC(=O)CCN1CCN(Cc2ccccc2)CC1,"inconclusive: 28.2 µM [inhibitor, partial curve]"
13,O=C(Nc1nc(-c2ccco2)c(-c2ccco2)s1)C1CC(=O)N(c2ccc3c(c2)OCCO3)C1 (stereo unspecified),"inconclusive: 3.16 µM [inhibitor, full curve]"
14,Cc1cc(C)c(C)c(S(=O)(=O)N2CCN(C(=O)c3cc(=O)[nH]c4ccccc34)CC2)c1C,"inconclusive: 39.8 µM [inhibitor, single point]"
15,N#Cc1ccc(/C=C(\C(=O)C(=O)O)c2ccc3ccccc3n2)cc1,"inconclusive: 25.1 µM [inhibitor, partial curve]"
16,CC(=O)c1c[nH]c2ccc(C)cc2c1=O,"inconclusive: 25.1 µM [inhibitor, partial curve]"
17,CCOC(=O)c1cc2nc(-c3ccco3)cc(C(F)(F)F)n2n1,"inconclusive: 28.2 µM [inhibitor, partial curve]"
18,CCN1C(=O)/C(=C/C=C2/CCCN2C)OC1=S,active: 11.2 µM
19,Cc1c(C(=O)N2CCCCC2)sc(NC(=O)c2ccco2)c1C#N,inactive
20,Clc1ccsc1-c1ccc2ccccc2n1,"inconclusive: 35.5 µM [inhibitor, single point]"
21,CC(=O)c1ccc(-c2ccc(C(=O)N3CCN(c4ccc(F)cc4)CC3)o2)cc1,"inconclusive: 28.2 µM [inhibitor, partial curve]"
22,CN1CCN(C(c2cccs2)c2nnnn2Cc2ccc(F)cc2)CC1 (stereo unspecified),"inconclusive: 35.5 µM [inhibitor, single point]"
23,COc1ccc(CN2C(=O)Cc3c2nc(N)c2c(N)nc(N4CCOCC4)c(C#N)c32)cc1,"inconclusive: 7.94 µM [inhibitor, partial curve]"
24,CCOC(=O)c1sc2nc(C)nc(Nc3ccc(OC)cc3)c2c1C,"inconclusive: 35.5 µM [inhibitor, single point]"

row,Structure (SMILES),Potency
1,CCCC(=O)Nc1nc2ccc3nc(C)sc3c2s1,"inconclusive: 39.8 µM [inhibitor, single point]"
2,CCCCn1nc2cc(C(=O)NCc3ccc(OC)cc3)ccc2c1OCC,"inconclusive: 31.6 µM [inhibitor, partial curve]"
3,CCN1CCN(c2cc(C)c3cc(NC(=S)N(CC)CC)ccc3n2)CC1,"inconclusive: 25.1 µM [inhibitor, partial curve]"
4,Cc1nnc(NC(=O)C(C)Oc2ccc3c(C)cc(=O)oc3c2)s1 (stereo unspecified),"inconclusive: 28.2 µM [inhibitor, partial curve]"
5,CCOC(=O)c1ccc(NC(=O)c2nc[nH]c2C(=O)N[C@@H](CCCCNC(=O)OC(C)(C)C)C(=O)OC(C)(C)C)cc1,"inconclusive: 35.5 µM [inhibitor, single point]"
6,CCN(CC)S(=O)(=O)c1ccc(Oc2cccc(C(C)=O)c2)nc1,inactive
7,Cc1onc(-c2c(F)cccc2Cl)c1C(=O)O/N=C(\N)c1ccc([N+](=O)[O-])o1,inactive
8,c1ccc(CN2CCC3(CC2)Nc2ccccc2CO3)cc1,inactive
9,O=C(NCc1cccnc1)c1c[nH]c2cc3c(cc2c1=O)OCCO3,"inconclusive: 39.8 µM [inhibitor, single point]"
10,Cn1cc(Cl)c(C(=O)Nc2cnn(Cc3ccc(F)cc3)c2)n1,inactive
11,C=CCNc1nc2c(c(=O)n(C)c(=O)n2C)n1CCCCCC,inactive
12,O=C(CSc1nc2ccccc2c(=O)[nH]1)Nc1ccc(C(=O)O)cc1,inactive
13,CC(C)(C)C1C/C(=C/c2ccco2)C(=O)/C(=C/c2ccco2)C1 (stereo unspecified),"inconclusive: 35.5 µM [inhibitor, single point]"
14,O=S(=O)(Nc1nccs1)c1ccc(Br)cc1,inactive
15,Cc1ccc(CSc2nnc(C)c(=O)[nH]2)cc1,inactive
16,CC(C)Cn1c(C(C)C)nc([N+](=O)[O-])c1S(=O)(=O)c1ccc(F)cc1,inactive
17,Cc1cc(=O)oc2cc(Oc3ncccn3)ccc12,"inconclusive: 39.8 µM [inhibitor, single point]"
18,COc1cc2c(cc1OC)-c1c(oc3cc(O)cc(O)c3c1=O)CO2,"inconclusive: 28.2 µM [inhibitor, single point]"
19,Cc1cc(C)c2c(=O)n(CC(=O)Nc3cccc(Cl)c3C)sc2n1,"inconclusive: 4.47 µM [inhibitor, partial curve]"
20,Cn1c(=O)n(C)c2cc(/C=N/NC(=O)c3cccc(Br)c3)ccc21,"inconclusive: 35.5 µM [inhibitor, single point]"
21,O=c1c2c3c(sc2n(CCN2CCOCC2)c(=O)n1Cc1ccco1)CCCCC3,inactive
22,COc1ccc(NC2CC(=O)N(C)C2=O)cc1 (stereo unspecified),"inconclusive: 39.8 µM [inhibitor, single point]"
23,O=C(Nc1nc2ccccc2s1)c1ccc(Cl)s1,"inconclusive: 35.5 µM [inhibitor, single point]"
24,CC(=O)N1N=C(c2ccco2)CC1c1cc2ccc(C)cc2nc1Cl (stereo unspecified),"inconclusive: 39.8 µM [inhibitor, single point]"

row,Structure (SMILES),Potency
1,Nc1c(S(=O)(=O)c2cc(Cl)ccc2Cl)c2nc3ccccc3nc2n1CCN1CCOCC1,"inconclusive: 31.6 µM [inhibitor, partial curve]"
2,O=C1OC2(CCCCC2)OC(=O)C1=CNc1nc2ccccc2s1,inactive
3,COc1cc(NC(=O)c2ccco2)c(C(=O)OCC(=O)c2c[nH]c3ccccc23)cc1OC,"inconclusive: 31.6 µM [inhibitor, partial curve]"
4,CCOc1cccc(-c2nnc3sc(-c4cc(OC)c(OC)cc4OC)nn23)c1,inactive
5,O=C(NCc1cccnc1)c1c(O)c2cccc3c2n(c1=O)CCC3,"inconclusive: 31.6 µM [inhibitor, single point]"
6,CCc1cc(=O)oc2cc(C)cc(OC(C)C(=O)O)c12 (stereo unspecified),"inconclusive: 31.6 µM [inhibitor, partial curve]"
7,O=C(Nc1nc2ccc(S(=O)(=O)N3CCCC3)cc2s1)c1cccs1,"inconclusive: 39.8 µM [inhibitor, single point]"
8,O=C(NCc1cccc(C(F)(F)F)c1)c1cc(Cl)ccc1Cl,inactive
9,NC(=O)c1c(N)sc2c1CCCCC2,"inconclusive: 28.2 µM [inhibitor, single point]"
10,O=C(CN1CCCCCC1)N/N=C/c1cccs1,inactive
11,O=c1c2ccccc2cnn1-c1ccc2ccccc2c1,inactive
12,N/C(COc1ccccc1)=N\NC(=O)c1cccnc1Oc1ccccc1,"inconclusive: 39.8 µM [inhibitor, single point]"
13,CC1(C)OC(=O)C(=NNc2ccc(Cl)cc2)C(=O)O1,inactive
14,COc1ccc(C2=Nc3nc(-c4ccccc4)cn3C(c3ccc(OC)cc3)C2)cc1 (stereo unspecified),"inconclusive: 15.8 µM [inhibitor, partial curve]"
15,CC(=O)Nc1ccc2nc(SCC(=O)Nc3ccc(N4CCOCC4)c(Cl)c3)sc2c1,"inconclusive: 39.8 µM [inhibitor, single point]"
16,COc1cc2ccc(=O)oc2c(O)c1OCC=C(C)C,"inconclusive: 25.1 µM [inhibitor, partial curve] and inconclusive: 31.6 µM [inhibitor, single point]"
17,Cc1cc(C)c2c(n1)sc1c(N3CCN(C)CC3)ncnc12,"inconclusive: 25.1 µM [inhibitor, single point]"
18,N#CC1=C(N)Oc2c(ccc3ccccc23)C1c1cccs1 (stereo unspecified),"inconclusive: 25.1 µM [inhibitor, single point]"
19,Cc1ccccc1NC(=O)NCCc1nc2ccccc2[nH]1,inactive
20,CN(C)c1ccc(/C=C/C#N)cc1,"inconclusive: 31.6 µM [inhibitor, partial curve]"
21,CCOC(=O)c1c(NC(=O)COc2cccc3c2CCN(C)C3=O)sc2c1CCC2,"inconclusive: 25.1 µM [inhibitor, single point]"
22,COc1ccc(-n2c(O)c(/C=N/NS(=O)(=O)c3ccc(C)cc3)c3ccccc3c2=O)cc1OC,"inconclusive: 25.1 µM [inhibitor, partial curve]"
23,O=C(/C=C/c1cccc(Cl)c1)Nn1c(-c2cccs2)nc2ccccc2c1=O,"inconclusive: 28.2 µM [inhibitor, partial curve]"
